The whole screen tested about 150,000 compounds, of which about 540 (0.36%) showed an effect of 50% or more. Some of the results follow.
These molecules were tested on Plasmodium falciparum (assay: Primary screen in NF54 nanoGlo assay, in single point, at 2uM, 72h; a lower Z score goes with more inhibition). Details: timepoint 72 hour.
Format: functional, Erythrocyte

Structure (SMILES)	% Inhibition [%]	Z score
O=C(Nc1ccc2nn(-c3cccc4ccccc34)nc2c1)c1sc2ccccc2c1Cl	4	-0.49
CCOC(=O)CN1CCC2(CC1)CCN(C(=O)c1ccccc1OC)CC2	-13	1.18
Cc1nc(C#N)c(N2CCN(C(=O)CN3CCC(C)CC3)CC2)o1	-8	1.11
O=C1NCCN1CCn1cnc(-c2ccccc2)c1-c1ccc(F)c(F)c1	-10	0.95
O=C(NCC1(O)CCC2(CC1)OCCO2)Nc1ccccc1C(F)(F)F	33	-3.72
Cc1ccc(NC(=O)Nc2ccccc2C#N)cc1NC(=O)Nc1ccccc1C#N	3	-0.49
CC1(C)[C@H](Cc2cc(CN3CCCCC3)on2)C[C@@H]1NC(=O)c1ccco1	0	0.03
O=C(N[C@H](c1ccc(F)cc1)C1CCCC1)C1CCC(O)CC1 (stereo not given in full)	8	-0.83
CC(=O)Nc1ccc(Cc2nc(-c3ccc(NS(=O)(=O)c4cccs4)cc3)no2)cc1	-8	0.97
CCOC(=O)c1csc(Nc2ncccn2)n1	13	-1.67
O=C1CCC(=O)N1C1CCC(NCc2c[nH]nc2-c2cccc(Cl)c2)CC1 (stereo not given)	-1	0.16
Nc1cccc(-n2ccnc2-c2cccc(C(=O)O)c2)n1	-8	1.2
Cc1nccn1Cc1c(C(=O)O)c2cc(O)c(Br)cc2n1C	32	-3.63
COc1ccc2c(c1)C(N1CCN(C(=O)CC(C)(C)C)CC1)=Nc1ccccc1O2	1	-0.13
CCNC(=O)c1nn(-c2ccc(Cl)cc2)c2c(=O)n(C)cnc12	-12	1.09
CC(C)Cc1ccccc1CNC(=O)Nc1nnc(C2CCOCC2)s1	-15	2.29
CC12CCC(C(=O)N3CCCC3)(c3nc4ccccc4nc31)C2(C)C (stereo not given)	-20	3.81
CC1CCN(S(=O)(=O)c2ccc(-c3cn4ccccc4n3)cc2)CC1	-20	3.74
Cc1nc(C2(C)CCN(S(=O)(=O)c3ccc4c(c3)CCC4)CC2)no1	-8	1.03
O=S(=O)(c1ccc(Br)c2ccccc12)N1CCCc2ccccc21	-5	1.02
O=C(O)C1=C[C@@H](c2cccc3ccccc23)n2ncnc2N1	-4	0.54
CN1CCN(S(=O)(=O)N[C@@H](CO)c2ccc(F)cc2)CC1	-12	2.47

Structure (SMILES)	% Inhibition [%]	Z score
C[C@H](NC(=O)Nc1ccc(F)cn1)c1nnnn1C1CC1	-5	0.69
Cc1cccc(N2CCN(C(=O)c3noc4c3C[C@@H](C)CC4)CC2)c1C	-1	0.26
CCN(CC)Cc1cnc2c(C(=O)N3CCN(c4ncccn4)CC3)cnn2c1	-10	1.02
Cc1ccc(F)c2[nH]c(C(=O)NC[C@H]3CC(=O)N(C)[C@@H]3c3cnn(C)c3C)cc12	-3	0.53
Cc1nc(N2CCOCC2)c2c(C(=O)N3CCN(c4ccccc4)CC3)c(C)oc2n1	5	-0.82
O=C(Cc1ccc(F)cc1)Nc1ccc(-c2cc3cc(Cl)ccc3[nH]2)cc1	-2	0.15
Cc1cc(C)n(-c2ccc(COc3nc(C(C)(C)C)no3)cc2)n1	-3	0.41
COc1cc(NC(=O)COc2ccccc2OC)ncn1	-5	0.96
Cc1cc(=O)[nH]c(NCCNC(=O)c2ccc(-c3sc(C)nc3C)cc2)n1	-5	0.43
O=C(NCC(F)F)C1CCCC(O)C1 (stereo not given)	-6	0.71
O=c1ccc(Br)cn1Cc1nnc2n1CCCCC2	-3	0.4
CCN(Cc1ccccn1)[C@H]1CCc2ccccc2NC1=O	-7	0.8
O=C(NCc1ccc(Cl)cc1)N1CC[C@H](O)[C@@H](O)C1	-3	0.44
Cn1cncc1CN[C@H]1CCOc2ccc(F)cc21	-4	0.54
COc1ccc(NC(=O)c2c(C)nn(-c3ccccc3)c2C)cc1S(=O)(=O)N1CCOCC1	-5	0.93
COc1ccc(CN[C@H](C)c2onc(-c3ccccc3)c2C(=O)O)cc1	-5	0.76
C[C@H]1CN(C(=O)C2(C#N)CCOCC2)C[C@]1(O)C1CC1	-6	1.07
CN1CCC[C@H](CCc2nc(Cc3cccc(Cl)c3)nn2CCO)C1	1	-0.05
Cc1nn(C)c2nc(NCCN3CCC[C@H](CO)C3)sc12	-4	0.8
COc1ccccc1NC(=O)c1c(C)n[nH]c1NCc1cnnn1C	13	-1.54
COc1cc(N[C@@H](C)c2ccc(N3CCOCC3)cc2)ncn1	-6	1.25
C=CCc1cc(C(=O)N2CC[C@]3(OC)CC[C@H](OC)C[C@H]23)ccc1OC	1	-0.21

Structure (SMILES)	% Inhibition [%]	Z score
O=C(Nc1ccc(-n2cccc(C(=O)NC3CCCCC3)c2=O)cc1)c1ccccc1	23	-3.31
Cc1ncsc1CN(C)[C@H]1CCc2nn(C)c(=O)n2CC1	-5	0.75
O=C1NC2(CCN(Cc3ccc(F)cc3)CC2)Nc2cccc(F)c21	-11	1.06
Cc1ncsc1C(=O)N1CC(n2nccn2)C1	-9	1.05
O=C(CC(F)(F)F)NCc1ccccc1F	1	-0.13
N#Cc1cc2n(c1N)-c1ccccc1C2=O	-2	0.3
Cc1cc(C)n([C@@H](C)CNC(=O)Nc2cc3c(cc2C)n(C)c(=O)n3C)n1	-7	0.98
COc1cccc(N2C[C@H](C)N(C(=O)c3cnc4ccnn4c3C)CC2=O)c1	-6	0.94
CCC1CN(C(=O)CCn2nc3ccccn3c2=O)C1	-13	1.5
Cc1ccc(Cn2ccn3nc(-c4ccc5c(c4)OCO5)cc3c2=O)cc1	-10	1.22
CCn1cc(C2OCCC2CNCc2occc2C)cn1 (stereo not given)	5	-0.72
O=C([C@H]1CC(=O)N(c2ccccc2)C1)N1CCN(c2ncnc3c2nnn3-c2cccc(F)c2)CC1	-9	1.64
Clc1c(CNc2nc(C3CC3)ns2)nc2ccccn12	-19	2.42
O=C(O)C12CC(C(=O)N3CCC(OCc4ccc(F)cc4)CC3)(C1)C2	1	-0.15
CC(C)C(C(=O)N1CC[C@@H](O)C1)N1CCCCC1 (stereo not given in full)	9	-1.83
COC[C@@H]1CN(Cc2ccc(Br)o2)C[C@H]1c1nc(C)no1	-13	2.29
COc1ccc(CC(=O)c2ccc(O)c(CN3CCN(C)CC3)c2O)cc1	-11	1.42
O=C(NCc1nc(C2CC2)no1)c1ccc(Nc2ccncc2)cc1	-10	2.13
CC(=O)Nc1nnc([C@H]2CC(=O)N(c3ccc(Cl)cc3)C2)s1	-13	2.3
CC(C)N(C1CC1)S(=O)(=O)c1ccc(OCC(F)(F)F)nc1	3	-0.44
N#Cc1c(-c2ccccc2OCCN2CCOCC2)cc(C2CC2)nc1N	-13	2.17
CCOc1ccc(CN2CCO[C@]3(CNCCOC3)C2)cc1Cl	0	-0.05

Structure (SMILES)	% Inhibition [%]	Z score
O=C1NCCCC[C@@H]1Oc1ccc(OCc2nnc3n2CCCCC3)cc1	1	-0.17
Cc1ccsc1CN1CCC(C(=O)O)(n2cccn2)CC1	-4	0.7
CN1CCCCC[C@H]1c1nc(CC(N)=O)nn1-c1ccc(F)c(F)c1	-2	0.26
CC(COC1CCOC1)NC1CCc2c(Br)cc(Cl)cc21 (stereo not given)	-6	0.99
O=C(Cc1cccc2ccccc12)N[C@H]1CCN(c2nccs2)C1	-3	0.51
CCc1cc([C@@H]2CCCN2Cc2cc(OC)cc(OC)c2)on1	-14	1.81
Cc1c(C(=O)NC[C@H]2CCC(C)(C)O2)cnn1C1CCCC1	-4	0.72
Cc1noc(C)c1CN(C)C(=O)[C@H]1CCC(=O)NC1	-8	0.69
OC[C@H]1CN(Cc2ccccc2C(F)(F)F)C[C@H]1CN1CCCCC1	-13	1.22
CN(C)[C@H]1[C@H](NC(=O)c2cc(F)cc(Cl)c2)[C@@H]2CCO[C@@H]21	-4	0.6
C[C@@H]1CN(c2ccnc(C(=O)O)c2)C[C@]1(C)O	-14	1.88
CCCCS(=O)(=O)N[C@H]1CCN(C2CCCC2)C1	-11	1.33
C=CCOc1ccccc1CN1CC2(C)CC1CC(C)(C)C2 (stereo not given)	-15	2.09
O=C(Nc1ccnn1Cc1cccs1)c1cccc2ccccc12	2	-0.27
COc1ccc(OC)c(CNc2nccc(-n3nc(C)cc3C)n2)c1	-3	0.51
C[C@@H](C(=O)NS(=O)(=O)CC1CCCC1)c1ccccc1	-19	1.86
Cc1ccc2nc(N3CCN(C(=O)C(C)(C)C)CC3)c(-c3noc(-c4ccccc4)n3)cc2c1	-30	5.56
COc1ccc(NC(=O)CN2CCC[C@H](C)C2)cc1S(=O)(=O)N1CCCCC1	-14	1.68
Cc1ncoc1CNC(=O)NC[C@H](C)C1CC1	-8	1.11
